PubChem BioAssay (Tox21)
Values joined by “and” are separate entries in the source; they are usually repeats but may differ in a detail not shown here. Equal entries are not always repeated. The inconclusive results got no clear call from the source; some entries with a clear call stand among them for comparison. For part of these data: Where the call is inconclusive, the potency comes from a doubtful curve fit. Active and inactive are the calls of the source. Unless noted, calls follow the shape of the dose curve; as a rule, active = well fitted curve in the direction sought with a large enough effect in the repeat runs; inconclusive = weak or mixed curves; inactive = no such curve, though single readings can be large; an effect the other way counts as inactive or inconclusive.

Legend:
[1] = qHTS assay to identify aromatase inhibitors - cell viability counter screen (AID 743084); details: MCF-7 aro ERE viability, CellTiter-Fluor, 24 h; activity change, negative = cytotoxicity: at 70.3 µM (top of the series);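 also: cells stimulated with testosterone during compound exposure; nearly all actives have a fitted effect of over 55% in size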
[2] = qHTS assay to identify small molecule that activate the aryl hydrocarbon receptor (AhR) signaling pathway - cell viability counter screen (AID 743086); also: nearly all actives have a fitted effect of over 45% in size
Summary of the method: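 Cytotoxicity counter screen: CellTiter-Fluor signal (30 min, 37 C) in 4000 HepG2 cells/well carrying the DRE-luciferase reporter, following 24 h compound exposure at 37 C.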

[3] = target: Peroxisome proliferator-activated receptor gamma (Homo sapiens) (UniProt P37231); assay: qHTS assay to identify small molecule agonists of the peroxisome proliferator-activated receptor gamma (PPARg) signaling pathway (AID 743094; active = well fitted activation curve with a large enough effect in the signal ratio in the repeat runs, not every such curve was filed as active; inconclusive = weak or mixed curves, or effect the other way; inactive = no such curve, though single readings can be large or run the other way; the % refers to the signal ratio; as to activation: % is scaled to controls: 0 for no effect and ±100 for the full control effect); details: HEK293H PPARg-UAS-bla, beta-lactamase FRET ratio, 17 h; activation: at 57 µM (top of the series) unless noted
Sequence of UniProt P37231 (P37231 whole entry, looked up): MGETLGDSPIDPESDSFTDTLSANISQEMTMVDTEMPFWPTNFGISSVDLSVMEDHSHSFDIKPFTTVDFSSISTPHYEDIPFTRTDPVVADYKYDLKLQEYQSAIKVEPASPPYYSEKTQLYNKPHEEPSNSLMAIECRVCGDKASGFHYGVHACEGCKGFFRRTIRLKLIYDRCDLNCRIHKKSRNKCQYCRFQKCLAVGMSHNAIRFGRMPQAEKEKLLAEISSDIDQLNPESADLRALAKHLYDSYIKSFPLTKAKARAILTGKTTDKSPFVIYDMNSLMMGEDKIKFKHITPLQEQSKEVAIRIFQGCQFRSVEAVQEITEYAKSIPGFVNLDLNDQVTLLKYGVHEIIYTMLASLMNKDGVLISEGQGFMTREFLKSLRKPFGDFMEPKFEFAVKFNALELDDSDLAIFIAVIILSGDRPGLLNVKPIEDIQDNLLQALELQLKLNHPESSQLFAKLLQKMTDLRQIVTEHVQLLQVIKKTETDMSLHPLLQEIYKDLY
Summary of the method: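 Beta-lactamase FRET fluorescence was the read-out after a 1 h room-temperature substrate step, following 17 h compound treatment at 37C of HEK293H cells expressing a UAS-driven bla reporter responsive to PPARg.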

[4] = target: Peroxisome proliferator-activated receptor gamma (Homo sapiens) (UniProt P37231); assay: qHTS assay to identify small molecule antagonists of the peroxisome proliferator-activated receptor gamma (PPARg) signaling pathway (AID 743191; calls by dose curve; also: nearly all actives have a fitted effect of over 30% in size; as to ratio activity, negative = inhibition: % is scaled to controls: 0 for no effect and ±100 for the full control effect); details: HEK293H PPARg-UAS-bla, beta-lactamase ratio, antagonist, 17 h; ratio activity, negative = inhibition: at 62.6 µM (top of the series) unless noted
Summary of the method: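 Beta-lactamase reporter under UAS control in HEK293H PPARg-bla cells; compound treatment 17 h at 37C. Read-out: fluorescence intensity after 1 h room-temperature incubation with LiveBLAzer B/G FRET substrate.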

[5] = qHTS assay for small molecule agonists of the antioxidant response element (ARE) signaling pathway (AID 743202; active = well fitted activation curve with a large enough effect in the signal ratio in the repeat runs, not every such curve was filed as active; inconclusive = weak or mixed curves, or effect the other way; inactive = no such curve, though single readings can be large or run the other way; the % refers to the signal ratio; as to activation: % is scaled to controls: 0 for no effect and ±100 for the full control effect); details: HepG2 ARE-bla reporter, beta-lactamase FRET, 16 h; activation: at 73.3 µM (top of the series) unless noted
Summary of the method: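 Quantitative high-throughput format in HepG2 cells bearing an integrated ARE-beta-lactamase reporter. Compound exposure lasted 16 h at 37 C, and fluorescence was read 2 h after adding LiveBLAzer B/G substrate at room temperature.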

[6] = qHTS assay for small molecule activators of the heat shock response signaling pathway - cell viability counter screen (AID 743209); details: HSE-bla HeLa viability, CellTiter-Glo luminescence, 5 h; activity change, negative = cytotoxicity: at 62.6 µM (top of the series); also: nearly all actives have a fitted effect of over 50% in size
Summary of the method: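 Luminescence from CellTiter-Glo, added after the beta-lactamase FRET read, gave the viability signal. Cells were HSE-bla HeLa treated with DMSO-dissolved compounds for 5 h at 37 C following overnight plating.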

[7] = qHTS assay for small molecule activators of the heat shock response signaling pathway (AID 743210; active = well fitted activation curve with a large enough effect in the signal ratio in the repeat runs, with a control signal flat, not every such curve was filed as active; inconclusive = weak or mixed curves; the % refers to the signal ratio); details: HeLa HSE-bla reporter, beta-lactamase ratio, 5 h; activation: at 62.6 µM (top of the series)
Summary of the method: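 HeLa HSE-bla cells, overnight plating; cpd in DMSO 5 h, 37 C; LiveBLAzer B/G FRET substrate 2.5 h RT; fluorescence intensity read.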

[8] = qHTS assay to identify small molecule agonists of the peroxisome proliferator-activated receptor delta (PPARd) signaling pathway - cell viability counter screen (AID 743211); details: PPARd-bla HEK293H viability, CellTiter-Glo luminescence, 17 h; activity change, negative = cytotoxicity: at 62.6 µM (top of the series); also: nearly all actives have a fitted effect of over 55% in size
Summary of the method: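 Following 5 h plating at 37 C and 5% CO2, PPARd UAS-bla HEK293H cells took up test compounds for 17 h. Viability was quantified by luminescence 30 min after CellTiter-Glo addition at room temperature.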

[9] = target: Peroxisome proliferator-activated receptor delta (Homo sapiens) (UniProt Q03181); assay: qHTS assay to identify small molecule agonists of the peroxisome proliferator-activated receptor delta (PPARd) signaling pathway (AID 743212; calls by dose curve); details: HEK293H PPARd-UAS-bla, beta-lactamase FRET ratio, 17 h; activation: at 62.6 µM (top of the series) unless noted
Sequence of UniProt Q03181 (Q03181 whole entry, looked up): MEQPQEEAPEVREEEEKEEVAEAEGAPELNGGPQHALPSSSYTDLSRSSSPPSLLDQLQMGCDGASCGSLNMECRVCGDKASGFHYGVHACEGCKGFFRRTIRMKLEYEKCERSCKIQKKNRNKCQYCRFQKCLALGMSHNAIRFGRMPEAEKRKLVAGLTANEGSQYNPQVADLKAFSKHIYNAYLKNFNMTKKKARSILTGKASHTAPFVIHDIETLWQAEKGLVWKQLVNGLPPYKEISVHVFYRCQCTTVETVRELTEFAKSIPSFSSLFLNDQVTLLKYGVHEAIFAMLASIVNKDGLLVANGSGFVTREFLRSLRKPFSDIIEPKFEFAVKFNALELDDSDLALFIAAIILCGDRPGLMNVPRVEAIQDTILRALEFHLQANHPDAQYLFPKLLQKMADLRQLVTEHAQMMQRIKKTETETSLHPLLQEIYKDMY
Summary of the method: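 HEK293H PPARd-bla cells; 5 h preincubation 37 C/5% CO2; compound (DMSO) 37 C; LiveBLAzer B/G FRET substrate 2 h RT; fluorescence intensity.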

[10] = qHTS assay to identify small molecule antagonists of the peroxisome proliferator-activated receptor delta (PPARd) signaling pathway - cell viability counter screen (AID 743213); details: PPARd-bla HEK293H viability, CellTiter-Glo luminescence, 17 h; viability change, negative = cytotoxic: at 62 µM (top of the series) unless noted; also: nearly all actives have a fitted effect of over 50% in size
Summary of the method: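 In this counter screen, HEK293H cells carrying a UAS-beta-lactamase reporter are co-treated with test compounds and 300 nM L165041 (final) for 17 h at 37 C; cell viability is quantified by CellTiter-Glo luminescence.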

[11] = target: Peroxisome proliferator-activated receptor delta (Homo sapiens) (UniProt Q03181); assay: qHTS assay to identify small molecule antagonists of the peroxisome proliferator-activated receptor delta (PPARd) signaling pathway (AID 743215; active = well fitted inhibition curve with a large enough effect in the signal ratio in the repeat runs, not every such curve was filed as active; inconclusive = weak or mixed curves, or effect the other way; inactive = no such curve, though single readings can be large or run the other way; the % refers to the signal ratio;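 also: cells stimulated with agonist L165041 at 300 nM final during compound exposure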; as to ratio activity, negative = inhibition: % is scaled to controls: 0 for no effect and ±100 for the full control effect); details: HEK293H PPARd-UAS-bla, beta-lactamase FRET ratio, antagonist, 17 h; ratio activity, negative = inhibition: at 62 µM (top of the series) unless noted
Summary of the method: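 Read-out is beta-lactamase FRET fluorescence, measured 2 h after substrate addition at room temperature. Beforehand, UAS-bla HEK293H cells carrying the PPARd reporter were exposed to compounds with L165041 at 300 nM final for 17 h at 37 C.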

[12] = target: Bile acid receptor (Homo sapiens) (UniProt Q96RI1); assay: qHTS assay to identify small molecule antagonists of the farnesoid-X-receptor (FXR) signaling pathway (AID 743217; active = well fitted inhibition curve with a large enough effect in the signal ratio in the repeat runs, not every such curve was filed as active; inconclusive = weak or mixed curves, or effect the other way; inactive = no such curve, though single readings can be large or run the other way; the % refers to the signal ratio); details: HEK293T FXR-UAS-bla, beta-lactamase ratio, CDCA-stimulated, 16 h; activity change, negative = inhibition: at 62.6 µM (top of the series) unless noted
Sequence of UniProt Q96RI1 (Q96RI1 whole entry, looked up): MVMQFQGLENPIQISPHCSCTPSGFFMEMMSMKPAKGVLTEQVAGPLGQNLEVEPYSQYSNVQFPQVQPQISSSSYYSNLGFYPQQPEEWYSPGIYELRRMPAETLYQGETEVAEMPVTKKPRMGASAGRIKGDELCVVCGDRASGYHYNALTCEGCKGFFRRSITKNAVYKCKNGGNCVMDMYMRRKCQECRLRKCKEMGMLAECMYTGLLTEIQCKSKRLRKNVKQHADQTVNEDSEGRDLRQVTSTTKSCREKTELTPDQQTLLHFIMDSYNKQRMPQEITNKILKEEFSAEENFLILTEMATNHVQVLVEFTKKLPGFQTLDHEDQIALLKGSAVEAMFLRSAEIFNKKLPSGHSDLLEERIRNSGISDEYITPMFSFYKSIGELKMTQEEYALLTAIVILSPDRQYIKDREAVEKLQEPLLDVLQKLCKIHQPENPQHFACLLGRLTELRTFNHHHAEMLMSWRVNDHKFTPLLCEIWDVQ
Summary of the method: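 HEK 293T FXR-UAS-bla, 5000 cells/well; compound + CDCA 50 uM final; 16 h, 37 °C; B/G FRET substrate 2 h RT; fluorescence.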

[13] = qHTS assay to identify small molecule agonists of the farnesoid-X-receptor (FXR) signaling pathway - cell viability counter screen (AID 743218); details: FXR-bla HEK293T viability, CellTiter-Glo luminescence, 16 h; viability change, negative = cytotoxic: at 62.6 µM (top of the series) unless noted; also: nearly all actives have a fitted effect of over 45% in size
Summary of the method: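 HEK 293T FXR-bla cells; 5 h pre-incubation, 16 h compound exposure at 37 C; LiveBLAzer substrate 2 h RT, then CellTiter-Glo 30 min RT, luminescence.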

[14] = target: Bile acid receptor (Homo sapiens) (UniProt Q96RI1); assay: qHTS assay to identify small molecule agonists of the farnesoid-X-receptor (FXR) signaling pathway (AID 743220; active = well fitted activation curve with a large enough effect in the signal ratio in the repeat runs, not every such curve was filed as active; inconclusive = weak or mixed curves, or effect the other way; the % refers to the signal ratio); details: HEK293T FXR-UAS-bla, beta-lactamase FRET ratio, 16 h; activation: at 62.6 µM (top of the series) unless noted
Summary of the method: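 Beta-lactamase reporter under UAS control in GeneBLAzer FXR HEK 293T cells (5000/well) measured with LiveBLAzer FRET substrate after 2 h at room temperature. Compound exposure lasted 16 h at 37C.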

[15] = qHTS assay to identify small molecule antagonists of the farnesoid-X-receptor (FXR) signaling pathway - cell viability counter screen (AID 743221; active = well fitted cell-killing curve with a large enough effect in the repeat runs, not every such curve was filed as active; inconclusive = weak or mixed curves, or effect the other way; inactive = no such curve, though single readings can be large or run the other way; also: nearly all actives have a fitted effect of over 50% in size); details: FXR-bla HEK293T viability, CellTiter-Glo luminescence, 16 h; activity change, negative = cytotoxicity: at 62.6 µM (top of the series)
Summary of the method: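 Compound effects on cell number were measured as CellTiter-Glo luminescence in HEK 293T cells expressing FXR-UAS-bla, after 16 h at 37 C with 50 uM CDCA (final).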

[16] = target: Vitamin D3 receptor (Homo sapiens) (UniProt P11473); assay: qHTS assay to identify small molecule agonists of the vitamin D receptor (VDR) signaling pathway (AID 743222; calls by dose curve); details: HEK293T VDR-UAS-bla, beta-lactamase FRET ratio, 16 h; activation: at 63.5 µM (top of the series) unless noted
Sequence of UniProt P11473 (P11473 whole entry, looked up): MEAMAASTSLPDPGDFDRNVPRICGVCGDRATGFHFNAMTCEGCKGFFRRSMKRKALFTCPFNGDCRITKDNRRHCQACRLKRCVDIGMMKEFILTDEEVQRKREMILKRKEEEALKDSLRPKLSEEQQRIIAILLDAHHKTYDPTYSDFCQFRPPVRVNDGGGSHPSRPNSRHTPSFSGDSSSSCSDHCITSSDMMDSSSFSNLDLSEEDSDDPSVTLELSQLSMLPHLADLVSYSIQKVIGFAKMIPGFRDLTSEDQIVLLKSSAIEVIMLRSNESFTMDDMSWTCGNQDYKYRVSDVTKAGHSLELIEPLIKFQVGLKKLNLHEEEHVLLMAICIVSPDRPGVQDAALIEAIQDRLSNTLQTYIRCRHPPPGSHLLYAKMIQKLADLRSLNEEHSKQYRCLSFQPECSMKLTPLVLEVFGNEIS
Summary of the method: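 VDR-bla cells, 2,000/well; 4 h preincubation 37C; cpd (DMSO) 16 h; LiveBLAzer B/G substrate 2 h RT; fluorescence intensity read.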

[17] = target: Vitamin D3 receptor (Homo sapiens) (UniProt P11473); assay: qHTS assay to identify small molecule antagonists of the vitamin D receptor (VDR) signaling pathway (AID 743223; active = well fitted inhibition curve with a large enough effect in the signal ratio in the repeat runs, not every such curve was filed as active; inconclusive = weak or mixed curves, or effect the other way; inactive = no such curve, though single readings can be large or run the other way; the % refers to the signal ratio); details: VDR-UAS-bla HEK293T, beta-lactamase FRET ratio, 16 h; activity change, negative = inhibition: at 61 µM (top of the series) unless noted
Summary of the method: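 Beta-lactamase activity in VDR-bla cells is measured by FRET substrate fluorescence (2 h, room temperature) after cells spend 16 h at 37C with test compound and 3 nM final 1alpha,25-dihydroxyvitamin D3.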

[18] = qHTS assay to identify small molecule antagonists of the peroxisome proliferator-activated receptor gamma (PPARg) signaling pathway - cell viability counter screen (AID 743194); details: PPARg-bla HEK293H viability, CellTiter-Glo luminescence, 17 h, co-treated with 50 nM rosiglitazone; activity change, negative = cytotoxicity: at 62.6 µM (top of the series); also: nearly all actives have a fitted effect of over 55% in size
Summary of the method: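 Viability was measured as CellTiter-Glo luminescence in GeneBLAzer PPARg UAS-bla HEK293H cells. These cells had been exposed 17 h at 37 C to compounds together with rosiglitazone at 50 nM final, with the beta-lactamase readout taken in the same wells.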
Potency is read from the fitted curve at half-maximal effect; tags tell the direction and shape of the fitted curve or compound fluorescence and quenching.

C=CC(=O)OCCOCCOC(=O)C=C
inconclusive: Potency [2] 48.8 µM [falling, partial curve] | Potency [3] 61.9 µM [fluorescent, single point] | Potency [4] 49.2 µM [fluorescent] | Potency [6] 34.8 µM [cytotoxic, partial curve] | Potency [7] 46.4 µM | Potency [9] 55.2 µM [rising, single point] | Potency [10] 43.8 µM [cytotoxic, partial curve, poor fit] | Potency [11] 27.7 µM [rising, partial curve] | Potency [12] 61.9 µM [rising, single point] | Potency [13] 61.9 µM [cytotoxic, single point] | Potency [14] 61.9 µM [fluorescent, single point] | Potency [15] 55.2 µM [falling, single point] | Potency [16] 61.9 µM [rising, single point] | Potency [17] 55.2 µM
active: Potency [1] 13.7 µM | Potency [5] 30.8 µM | Potency [8] 49.2 µM

CC1(C)CCC(C)(C)c2cc(C(=O)Nc3ccc(C(=O)O)cc3)ccc21
active: Potency [14] 43.6 µM
inconclusive: Potency [1] 61.1 µM [cytotoxic, partial curve] | Potency [2] 61.1 µM [falling, partial curve, poor fit] | activation [3] -11.2% | Potency [6] 61.6 µM [cytotoxic, single point] | Potency [10] 61.6 µM [cytotoxic, single point] | Potency [16] 27.5 µM [rising, partial curve, poor fit] | Potency [17] 54.9 µM [inhibitor, single point]
inactive: Potency [4] | Potency [11]

C[C@H](CCC(=O)O)[C@H]1CC[C@H]2[C@@H]3[C@H](O)C[C@@H]4C[C@H](O)CC[C@]4(C)[C@H]3CC[C@]12C
inconclusive: Potency [1] 77.2 µM [cytotoxic, single point] | Potency [2] 68.8 µM [falling, partial curve, poor fit] | Potency [3] 7.78 µM [rising, full curve] | Potency [4] 24.6 µM [fluorescent, partial curve] | Potency [5] 48.7 µM [rising, partial curve] | Potency [9] 27.6 µM [rising, single point] | Potency [10] 0.873 µM [cytotoxic, full curve, poor fit] | Potency [11] 27.6 µM [fluorescent] | Potency [16] 43.8 µM [rising, partial curve, poor fit] | Potency [17] 39 µM [fluorescent, partial curve]

O=C1Nc2ccccc2C1(c1ccc(O)cc1)c1ccc(O)cc1
inconclusive: Potency [1] 61.1 µM [cytotoxic, partial curve, poor fit] | Potency [2] 68.6 µM [falling, single point] | activation [3] -15.9% | Potency [18] 19.5 µM [cytotoxic, full curve, poor fit] | Potency [5] 33.5 µM [rising, single point] | activation [5] 15.8% | ratio activity, negative = inhibition [11] -12.1% | Potency [12] 49 µM [partial curve] and 33.5 µM [inhibitor, partial curve] | Potency [14] 13.8 µM [activator, full curve, poor fit] and 15 µM [activator, full curve, poor fit] | activity change, negative = inhibition [17] 3.65%
inactive: Potency [10]

O=S(=O)(O)c1ccc(Nc2nc(Nc3ccc(/C=C/c4ccc(Nc5nc(Nc6ccc(S(=O)(=O)O)cc6)nc(N(CCO)CCO)n5)cc4S(=O)(=O)O)c(S(=O)(=O)O)c3)nc(N(CCO)CCO)n2)cc1
inconclusive: Potency [1] 23.2 µM [rising, partial curve] | Potency [2] 18.4 µM [rising, partial curve] | Potency [3] 14.8 µM [activator, partial curve] | Potency [4] 33.1 µM [activator, partial curve] | activation [5] 11.7% | Potency [7] 22.5 µM [fluorescent] | Potency [11] 29.5 µM [activator, partial curve] | Potency [12] 4.16 µM [activator, full curve, poor fit] | Potency [13] 0.0467 µM [cytotoxic, full curve, poor fit] | activity change, negative = inhibition [17] 51.4%
active: Potency [9] 33.1 µM | Potency [14] 33.1 µM | Potency [16] 13.2 µM
inactive: Potency [10]

CCOC(=O)c1nc(C(Cl)(Cl)Cl)n(-c2ccc(Cl)cc2Cl)n1
active: Potency [2] 61.1 µM | Potency [8] 54.9 µM | Potency [10] 49 µM
inconclusive: Potency [1] 68.6 µM [cytotoxic, single point] | Potency [4] 54.9 µM [single point] | Potency [5] 27.3 µM [falling, partial curve] | Potency [6] 21.9 µM [cytotoxic, partial curve, poor fit] | Potency [9] 61.6 µM | Potency [11] 61.6 µM [cytotoxic, single point] | activity change, negative = inhibition [12] 19.5% | Potency [13] 54.9 µM [cytotoxic, single point] | Potency [15] 54.9 µM [falling, single point] | Potency [17] 54.9 µM
